The whole screen tested about 310,000 compounds, of which about 14,000 (4.5%) showed an effect of 50% or more. Effects have a minus sign here. The list shows a part of the results.
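Also: peak tail current of the secondary pulse compared with the same well before compound.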

Sequence of human ether-à-go-go-related gene (hERG) potassium channel (Q12809 whole entry, looked up): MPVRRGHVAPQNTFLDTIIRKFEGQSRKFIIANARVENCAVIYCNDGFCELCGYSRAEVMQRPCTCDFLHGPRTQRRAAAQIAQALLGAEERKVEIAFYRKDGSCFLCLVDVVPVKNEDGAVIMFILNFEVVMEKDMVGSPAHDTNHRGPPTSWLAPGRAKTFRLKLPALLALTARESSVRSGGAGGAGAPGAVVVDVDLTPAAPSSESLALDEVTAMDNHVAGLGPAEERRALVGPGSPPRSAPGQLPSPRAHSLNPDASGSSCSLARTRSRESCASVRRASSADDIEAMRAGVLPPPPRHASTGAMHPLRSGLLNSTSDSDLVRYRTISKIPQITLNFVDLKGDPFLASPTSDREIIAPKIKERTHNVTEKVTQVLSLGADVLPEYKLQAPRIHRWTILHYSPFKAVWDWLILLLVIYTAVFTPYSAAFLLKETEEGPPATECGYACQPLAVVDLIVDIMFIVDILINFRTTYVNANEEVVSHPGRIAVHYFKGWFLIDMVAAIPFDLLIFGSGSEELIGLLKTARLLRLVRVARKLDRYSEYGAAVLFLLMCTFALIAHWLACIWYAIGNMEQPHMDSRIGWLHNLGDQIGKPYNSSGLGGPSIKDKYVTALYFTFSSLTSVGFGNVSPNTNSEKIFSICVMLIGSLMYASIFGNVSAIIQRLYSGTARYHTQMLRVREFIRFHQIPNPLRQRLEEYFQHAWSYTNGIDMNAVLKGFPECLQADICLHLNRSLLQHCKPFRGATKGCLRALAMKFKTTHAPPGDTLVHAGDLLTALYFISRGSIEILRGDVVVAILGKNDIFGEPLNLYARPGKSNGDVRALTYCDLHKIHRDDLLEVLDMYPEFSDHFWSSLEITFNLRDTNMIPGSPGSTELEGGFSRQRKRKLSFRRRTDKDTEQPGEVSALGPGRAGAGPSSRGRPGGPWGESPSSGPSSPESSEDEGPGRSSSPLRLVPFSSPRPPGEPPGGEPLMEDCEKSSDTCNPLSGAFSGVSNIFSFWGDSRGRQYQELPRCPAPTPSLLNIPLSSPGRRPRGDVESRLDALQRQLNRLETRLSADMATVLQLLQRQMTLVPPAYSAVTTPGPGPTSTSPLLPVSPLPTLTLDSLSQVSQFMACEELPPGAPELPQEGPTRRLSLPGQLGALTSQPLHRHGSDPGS

This assay concerns the target human ether-à-go-go-related gene (hERG) potassium channel (human, UniProt Q12809). Description: primary screen, population patch clamp on CHO cells stably expressing hERG.
As for `CCOC(=O)c1cc2sccc2n1CCCN1C(=O)c2ccccc2C1=O`, the “hERG current change (%, negative = inhibition) at 10uM” value stood at 6.01%.

Take `COc1ccccc1Nc1nc(N2CCCC2)nc(N2CCOCC2)n1`: the “hERG current change (%, negative = inhibition) at 10uM” value amounted to 20.5%.

As for `Cc1ccccc1NS(=O)(=O)c1ccc(C)c(C(=O)N2CCOCC2)c1`, the “hERG current change (%, negative = inhibition) at 10uM” value stood at 1.47%. On to `COc1ccccc1CC(=O)Nc1ccc2nc(C)sc2c1`, for which the “hERG current change (%, negative = inhibition) at 10uM” value is on record as -2.82%. `CCN1CCN(c2cc(C)c3cc(NC(=O)Cc4ccc(OC)c(OC)c4)ccc3n2)CC1`: the “hERG current change (%, negative = inhibition) at 10uM” value is -10.5%. As to `Cc1nn(C)c(Oc2ccccc2)c1CCNC(=O)CC(C)C`, the “hERG current change (%, negative = inhibition) at 10uM” value stood at 13.6%. In the case of `CC1CCN(c2ccc3nnc(CCC(=O)NC(C)C)n3n2)CC1`, the “hERG current change (%, negative = inhibition) at 10uM” value is reported as 2.67%. `O=C(CN(C(=O)c1csnn1)c1ccc(Br)cc1)NC1CCCCC1`: the “hERG current change (%, negative = inhibition) at 10uM” value amounted to 9.11%. `Nc1cccc(NC(=O)c2ccco2)c1`: the “hERG current change (%, negative = inhibition) at 10uM” value is 4.06%. As for `Clc1ccc(OCc2nnc(SCc3nc4ccccc4[nH]3)n2Cc2ccco2)cc1`, the “hERG current change (%, negative = inhibition) at 10uM” value was -36%. For the compound `CCOC(=O)c1c(NC(=O)CN(C)C)sc(C(=O)N(CC)CC)c1C.O=C(O)C(=O)O`, the “hERG current change (%, negative = inhibition) at 10uM” value is on record as -17.6%. Then `O=S(=O)(c1cc(Cl)ccc1Cl)N1CCCC1`, with 1.83%; and `O=C(/C=C/c1ccc(O)c(O)c1)O[C@@H]1C[C@](O)(C(=O)O)C[C@@H](O)[C@H]1O`, with 12%. For the compound `O=C(NCc1ccccc1)C1CCC1`, the “hERG current change (%, negative = inhibition) at 10uM” value is 30.1%. As for `CC(C)CN(C(=O)CC1CCCC1)c1c(N)n(Cc2ccccc2)c(=O)[nH]c1=O`, the “hERG current change (%, negative = inhibition) at 10uM” value was determined as 6.93%. For the compound `COc1ccc(CN(C(=O)c2cc3ccccc3oc2=O)C2CCCC2)cc1`, the “hERG current change (%, negative = inhibition) at 10uM” value is listed as -29.1%. Then `Nc1nc(SCC(=O)NC2CCCCC2)[nH]c(=O)c1-c1ccccc1`, with -11.7%. With `COC(=O)c1onc(-c2c(Cl)cccc2Cl)c1C(=O)OC`, the “hERG current change (%, negative = inhibition) at 10uM” value was determined as 11.5%.

With `COCCCNC(=S)NNC(=O)c1ccccn1`, the “hERG current change (%, negative = inhibition) at 10uM” value was determined as 61.7%. The value for `CCn1c(N)c(C(=O)NCc2ccco2)sc1=S` was 4.04%. As to `Cc1ccc(N(CCC#N)C(=O)COC(=O)C2CCN(c3ccc(C(F)(F)F)cn3)CC2)cc1`, the “hERG current change (%, negative = inhibition) at 10uM” value is -6.4%.

As for `Cl.O=[N+]([O-])c1cccc(/C=N\N2CCN(Cc3ccccc3Cl)CC2)c1`, the “hERG current change (%, negative = inhibition) at 10uM” value was -2.78%. For `COc1ccc(CNC(=O)C(=O)NCCC2CCCCN2S(=O)(=O)c2ccc(C)cc2)cc1` (stereo not shown), the “hERG current change (%, negative = inhibition) at 10uM” value is -3.21%. In the case of `CCC(CC)NC(=O)COC(=O)c1ccc(NS(=O)(=O)c2ccc3c(c2)OCCO3)cc1`, the “hERG current change (%, negative = inhibition) at 10uM” value is recorded as -12.3%.

Turning to `O=C(CNC(=O)Cc1ccccc1)NCc1cccc(C(F)(F)F)c1`, the “hERG current change (%, negative = inhibition) at 10uM” value was 15.8%. On to `COc1ccc(C)cc1-n1nnnc1SCC(=O)NC1CCS(=O)(=O)C1` (stereo not shown), for which the “hERG current change (%, negative = inhibition) at 10uM” value is -3.08%. Consider `Cc1ccc(NC(=O)C2CCCN2S(=O)(=O)c2ccc3c(c2)n(C)c(=O)c(=O)n3C)c(C)c1` (stereo not shown), for which the “hERG current change (%, negative = inhibition) at 10uM” value was -40.6%. The value for `COc1cccc(C2/C(=C(/O)c3cnn(-c4ccccc4)c3C)C(=O)C(=O)N2CCN(C)C)c1` (stereo not shown) was 18.2%. Then `CC(C)(C)NC(=O)C(c1ccc(F)cc1)N(Cc1ccccc1Cl)C(=O)c1ccn[nH]1` (stereo not shown), with 25.6%. On to `CCOC(=O)c1ccc(NC(=O)CSc2nnc(Cn3c(=O)sc4ccccc43)n2C)cc1`, for which the “hERG current change (%, negative = inhibition) at 10uM” value turned out to be 10.6%. Then `COc1cccc(CN2CCNC(=O)C2CC(=O)NCC(C)(C)N2CCOCC2)c1OC` (stereo not shown), with 19.7%; and `O=C(Nc1nc2ccsc2c(=O)s1)c1ccc(Cl)cc1`, with 8.93%; and `Oc1ccccc1Oc1c(F)c(F)nc(N2CCCC2)c1F`, with -4.15%. Turning to `COC(=O)CCC(=O)OC1(C)C(=O)C2=CN(Cc3ccc(OC)cc3)C(c3ccc(OC)cc3)=CC2=C(Br)C1=O` (stereo not shown), the “hERG current change (%, negative = inhibition) at 10uM” value is reported as -58.7%.

With `CCCC[C@H](CC(=O)c1ccccc1)[C@@H](OC(C)=O)C(=O)Oc1c(C(C)C)cccc1C(C)C`, the “hERG current change (%, negative = inhibition) at 10uM” value is given as 2.69%. Consider `COc1cc(C2N(c3ccccc3)CCN2c2ccccc2)cc(OC)c1OC`, for which the “hERG current change (%, negative = inhibition) at 10uM” value amounted to 3.48%. Then `COc1ccc(CCNC(=O)c2oc3ccc(S(=O)(=O)N4CCOCC4)cc3c2C)cc1OC`, with -16.5%; and `O=C(CCc1ccccc1)NNc1ccc(F)cc1`, with 13%; and `CCOC(=O)C1CCN(C(=O)CNC(=O)c2nn(-c3ccc(OC)c(Cl)c3)c(=O)c3ccccc23)CC1`, with -55%. For the compound `O=C(Nc1cc(F)ccc1F)C1CCN(S(=O)(=O)c2cccc3nonc23)CC1`, the “hERG current change (%, negative = inhibition) at 10uM” value stood at 5.02%. `COC(=O)/C=C/c1oc2ccccc2c1C`: the “hERG current change (%, negative = inhibition) at 10uM” value turned out to be 7.83%. The value for `COc1ccc(NC(=O)CCC(=O)OCC(=O)c2ccc(Oc3ccc([N+](=O)[O-])cc3)cc2)cc1` was 15.6%; that for `CC(C)Sc1nnc([C@H](C)NC(=O)OC(C)(C)C)o1` was -7.8%.
